Measurements from the RNAGym collection of RNA variant scans (doi:10.7554/elife.90254).
The source gives no read counts; variants with many changes may rest on few reads.

B1: LINE1-full (parent)
chain: UACGUAGGUGGUUUUCCCCUGAUAGUGCUAAGGGGGCCUGGAAGUUUGGACUGGGCAGAGCUCAACACAGCGUGGCAAAGUGGCUGUGGCUAGACUGCCUCUCUGGAUUCCUCGUCACUCAGCAGGGCAUCUCUGAGAGAAAUGCC

Variants of: B1
Experiment: self-cleavage, relative activity (ratio to wild type); higher = more cleavage; in vitro, sequencing; the parent is a self-cleaving ribozyme

Row | Variant | self-cleavage
1 | U9C U13C A69U A124U A129U A141G | 0.11
2 | U14A U62C U81A A94G | 0.26
3 | A6G A79G U108A U115A A121U A141G | 1.67
4 | U26C G36C U52A C99A | 0.08
5 | A6G A107G U119C | 1.12
6 | U46A U85A A141G | 0.08
7 | U13C U14C U20C A94U C128A | 0
8 | A42U A69U A94G | 0
9 | U1A U45G U119C | 0
10 | A67U G126A A138G A142U | 0.11
11 | U20G A67G U112A | 0
12 | A2G U13A A43U A121U | 0.34
13 | U62A A77U U85C U91C U96C C113A | 0
14 | A57C A129U U134A | 0.07
15 | A43G U85G U132C U143A | 0
16 | U9A A59G U112C | 0.04
17 | A6U U39A U62C | 0.18
18 | A2G A42G A43G A64G G139A | 0
19 | G41U U52A A65G A136G | 0.05
20 | U13C A65G G72U A77U | 0.07
21 | A129G A140G A142G | 0
22 | U29C C61U A67U | 0
23 | A94G C113A A121U | 0.23
24 | A77G U85C U104A | 0.41

Row | Variant | self-cleavage
25 | U29C C63A U87C | 0
26 | U12G A50G U91C | 0.38
27 | U20G U46G U52C A59G | 0
28 | A6G U9C U12G A50G U96A A141G | 0.54
29 | U62C A67U U73A U81C C84U | 0.08
30 | A64U A67G A136G | 0.11
31 | A30U C37A U52G | 2.13
32 | A2G U5C U15A A78G | 0.71
33 | U1C U14C U108C A124G | 1.72
34 | U46A A64G A140G | 0.2
35 | U62C U73A U85C | 0
36 | A6U G27A C95U | 0.22
37 | A64U A79U U85G | 0.1
38 | U104C A140U A141G | 1.37
39 | U46C A69G G114A | 0.76
40 | A30G G33A G35A G53A A92G | 0.02
41 | U14A A64G A67G A121U | 0
42 | U29A A43G U52A A117G | 0.98
43 | A6G U14C U62A U87A A92G A138G | 0
44 | U87C A92U U134A A138U | 0.12
45 | U46C U73C U91C G137U | 1.67
46 | U12G A59G G60U G80A G97C | 0.05
47 | A57U A69U U73G | 0.02
48 | U52C U73A A117G | 2.48

Row | Variant | self-cleavage
49 | A22G A50U A69U A138U | 0.03
50 | U12G A57U A94G U109C C128U | 0.16
51 | A42G U62A A65G | 0.04
52 | U96C U108C C113A | 0
53 | U5C U81C G97A U108C U132C A141G | 0.35
54 | C56U A65G U100C | 0.06
55 | U52C A107U C123A A129G A136G A142G | 0.95
56 | A22G A57G A59G A65U A94G C113A U119A | 0
57 | U9A G49A U87A A129U | 0.05
58 | U26A A59G A92U | 0
59 | A69U C133U A138G | 0.05
60 | U13A C103U U104C | 1.28
61 | A24U A50G A64U U73A | 0.59
62 | U47A A79U C123U A140G | 1.98
63 | U112C A129G A140G | 0.27
64 | G8U A64G U130C | 1.08
65 | A64U C71U U112C | 0.22
66 | U13C U20C G74A | 1.03
67 | U23C A31U A121C | 1.62
68 | U62G A121U A129G | 0.08
69 | A78G U112C A136U | 2.28
70 | A22G A65G G72A U73A A78G A117G | 0
71 | U12C U87C U108C | 0.5
72 | G74A U100C A121U | 1.39

Row | Variant | self-cleavage
73 | U23C A59G U115A A121G A141G | 0.26
74 | U26C U46C C61A G74A U134C | 0
75 | U52C A64U U91A C116U | 0.12
76 | U9A C116U A141G | 1.93
77 | A43U U91C G144C | 0.42
78 | U5C A57G U134A | 0.44
79 | U23C U26C A138G | 1.15
80 | U12A U81A U102C | 2.3
81 | U47A U109A G125A A129G | 1.01
82 | A30G A64G A129U | 0.71
83 | U47A U85G A121G A124U | 0.14
84 | C51U U119C A141G | 2.35
85 | G36A U52C U104C | 0.98
86 | U62C U109C U134G | 0.11
87 | U85A U108C U115A | 0.15
88 | C17A U26A A69U | 0.06
89 | U26A U73A U119A | 0.83
90 | U87C U119C A138G | 0
91 | A31U G44A A65G U87C | 0.08
92 | A78U U112A A124U A136G A141G | 2.53
93 | U14C C17A U26A | 1.01
94 | U12G A24G U91A | 0.75
95 | U15A U47C U134C | 0
96 | U14C C37G A57G A117C A129U U130C | 0.57

Row | Variant | self-cleavage
97 | U73C U115C A138U | 2.23
98 | G27A A77U U115C U119C | 0.62
99 | U14C A65U A67U | 0.11
100 | U15C U20C A50G A65U | 1.23
101 | U13C U20C A141G | 1.29
102 | U20C A42G A77U A141G | 1.62
103 | U47C G53A A129G | 1.38
104 | C28A U47C A59G | 0.11
105 | U9A U52A A92C | 0
106 | U15A G34A A129G | 0.31
107 | U9C A65U U81A U109C U132C | 0.1
108 | G34A A42G U46A | 1.13
109 | U5C A50G U112C | 2.04
110 | A64U A67G A94G | 0
111 | U102C C116U U134C | 1.12
112 | U26C U100C A136G | 2.71
113 | A65G A117G U134A | 0
114 | G4A G89A U91C | 0.07
115 | A2G U12C A129G | 0.87
116 | A79G A121G A142G | 2.3
117 | U46A G48A A64G U91C U112C | 0.03
118 | A77G U96C U115A | 0
119 | U46C U100A U102A | 0.85
120 | U13C U100A A138G | 0.62

Row | Variant | self-cleavage
121 | U39G G48A A64G | 0.44
122 | U26C U85C C131U U134A | 0.02
123 | U1A U46C U62C U81A | 0.12
124 | U9A A92G A121U A136G | 0.17
125 | U1C U47A U52A | 1.25
126 | U12C A22C A129C | 2.44
127 | A22G U39A U45A G49A U96C | 0.08
128 | U9A C19U G36A A42G U108C | 1.43
129 | A30U U46C A78G U132C U134C A140U | 2.21
130 | A67G C84G U100C C120U | 0.05
131 | U9C A57G U85G | 0.47
132 | U14C U52C U73A C98G | 0.06
133 | U12A U52A C98U | 0.2
134 | A30U U45A U100C | 1.08
135 | U47C G70A A138G | 0.32
136 | U5A G32C A140G | 1
137 | G32U U102C U104A | 0.92
138 | U15C A64C U73A | 0.53
139 | U20A U23C U45A | 1.25
140 | U26C A64G U96A A129G | 0.14
141 | U14C U20C U100C G122A U143A | 2.07
142 | C3U A22G A42G A57G U87A | 0.21
143 | U1C A69U A79C U132C | 0
144 | A30G U39A A43G A141G U143C | 0.89

Row | Variant | self-cleavage
145 | A24G U39A A69G A142G | 0.77
146 | A43G G127A A136G | 1.34
147 | A67U U85A C116U | 0.02
148 | G4A U119A A121G | 1.61
149 | A57C U87G U134C | 0
150 | G25A U26C A79G | 1.64
151 | U14C A79G A141G | 0.9
152 | G10A U47C U96C G127C U130A | 0.63
153 | G35A U39A C90U | 0.03
154 | U15C U39A A43G A121C U143C | 0.16
155 | A22U A64U A65G C113A | 0.09
156 | C18A U47C A57G | 1.41
157 | A67G A77U A124C | 0.67
158 | A6U A69G A77U A136G | 0.9
159 | A50G U112C U115C A129U U143A | 0
160 | U12C A30G U96A G122A | 0.21
161 | U9C A43G U112C U115A | 0.71
162 | G36C U47C U134G | 0.65
163 | A59U C95U A140G | 0.11
164 | U96C U100C A142G | 0.31
165 | G83A U102C A141G | 0.77
166 | U13C U26C A64U U104A U112C A140G | 0.11
167 | U15C U26C G126C | 1.25
